These results are taken from publication PMC6919601, “Identification of Plasmodium dipeptidyl aminopeptidase allosteric inhibitors by high throughput screening” (PLoS ONE, 2019).

About 230 (0.21%) of roughly 110,000 compounds showed an effect of 50% or more. Some of the results follow.
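Also: 30 min substrate incubation versus DMSO and 10 µM JCP410 controls.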

For the assay, the target named is DPAP1 (Plasmodium falciparum, UniProt Q8IIJ9). Nature of the assay: primary screen, percent inhibition; read by cleavage of a fluorogenic dipeptide substrate; higher = more effect of the substance. Also noted: species or system P. falciparum D10 trophozoite lysates; single well.
DPAP1, sequence (Q8IIJ9 whole entry, looked up): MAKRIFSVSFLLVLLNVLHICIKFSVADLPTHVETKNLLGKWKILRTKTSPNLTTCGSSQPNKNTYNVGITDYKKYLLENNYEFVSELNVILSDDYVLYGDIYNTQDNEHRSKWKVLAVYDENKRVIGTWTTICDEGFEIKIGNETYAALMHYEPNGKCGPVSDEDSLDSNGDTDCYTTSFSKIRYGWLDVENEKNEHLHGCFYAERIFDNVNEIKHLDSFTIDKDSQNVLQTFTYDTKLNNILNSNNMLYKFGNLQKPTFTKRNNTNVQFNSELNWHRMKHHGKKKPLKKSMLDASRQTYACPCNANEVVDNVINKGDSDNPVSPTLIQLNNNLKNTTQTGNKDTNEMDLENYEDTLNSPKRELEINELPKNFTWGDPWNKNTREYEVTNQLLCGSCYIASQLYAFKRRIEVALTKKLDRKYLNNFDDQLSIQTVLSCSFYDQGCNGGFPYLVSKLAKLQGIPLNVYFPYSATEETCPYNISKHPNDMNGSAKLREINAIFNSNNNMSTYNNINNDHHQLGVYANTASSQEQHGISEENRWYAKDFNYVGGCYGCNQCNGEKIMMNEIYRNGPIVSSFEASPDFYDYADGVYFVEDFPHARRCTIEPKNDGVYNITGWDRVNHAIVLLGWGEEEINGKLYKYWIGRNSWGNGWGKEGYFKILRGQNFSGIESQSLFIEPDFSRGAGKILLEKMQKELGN
Turning to `Cc1cc(O)c(C(=O)/C=C/c2cccnc2)c(=O)o1`, the “% Inhibition @ 10 uM” value is listed as -1.8%.

As to `Cc1ccc(C2CC(C(F)(F)F)n3nc(C(=O)Nc4cccc(C(C)O)c4)cc3N2)cc1` (stereo not drawn), the “% Inhibition @ 10 uM” value is 2.65%.

For `CC(C)(O)C#Cc1ccc(C(=O)N2CCN(C(=O)c3ccc(C#CC(C)(C)O)cc3)CC2)cc1`, the “% Inhibition @ 10 uM” value was 3.04%.

Turning to `CCCC12CN(C(=O)c3ccccc3)CC(C)(CN(C(=O)c3ccccc3)C1)C2=O`, the “% Inhibition @ 10 uM” value is 2.25%.

As to `CCOC(=O)C1=C(C)N=c2s/c(=C/c3ccccc3O)c(=O)n2C1c1ccc2c(c1)OCO2` (stereo not drawn), the “% Inhibition @ 10 uM” value stood at 4.42%.

In the case of `CC1=C(C(=O)OCc2ccccc2)C(c2ccc(Br)cc2)C(C#N)=C(N)O1` (stereo not drawn), the “% Inhibition @ 10 uM” value is -1.48%.

Turning to `COc1ccc(C2NC(=O)NC(C)=C2C(=O)OCC(C)C)cc1Br` (stereo not drawn), the “% Inhibition @ 10 uM” value is listed as -6.74%.

Consider `COc1ccc(-c2cc(C(F)(F)F)c(C#N)c(SCC(N)=O)n2)cc1OC`, for which the “% Inhibition @ 10 uM” value is given as -1.84%.

On to `CCCOc1ccc(CNC(=O)C(CC)n2nc(CC)n3c(cc4oc(C)cc43)c2=O)cc1` (stereo not drawn), for which the “% Inhibition @ 10 uM” value worked out at 3%.

On to `O=C(CN1C(=O)S/C(=C\c2ccccc2OCc2cccc(F)c2)C1=O)N1CCOCC1`, for which the “% Inhibition @ 10 uM” value was found to be 3.16%.

Regarding `CC(=O)c1nnn(-c2nc(N3CCOCC3)nc(N3CCOCC3)n2)c1C`, the “% Inhibition @ 10 uM” value amounted to 3.81%.

As to `C=C(C)Cn1c(N2CCCCC2)nc2c1c(=O)[nH]c(=O)n2C`, the “% Inhibition @ 10 uM” value is on record as 3.15%.

Turning to `Cc1ccc(Cl)cc1NC(=O)CSc1nc2ccccc2[nH]1`, the “% Inhibition @ 10 uM” value worked out at 2.93%.

For `Cc1cccc(NC(=O)C(C)Sc2nc3nc(C)cc(C)n3n2)c1` (stereo not drawn), the “% Inhibition @ 10 uM” value is listed as 1.67%.

As to `CC1CC(S)=Nc2ccccc2N1Cc1ccccc1` (stereo not drawn), the “% Inhibition @ 10 uM” value was found to be 4.84%.

Regarding `Cc1ccc2c(CNCc3ccco3)c(C(=O)O)n(Cc3ccc(F)cc3Cl)c2c1`, the “% Inhibition @ 10 uM” value is listed as -1.63%.

Consider `COCc1cc(C)nc2sc(C(=O)Nc3ccc(Br)c(Cl)c3)c(N)c12`, for which the “% Inhibition @ 10 uM” value is -2.94%.

Regarding `Cc1ccc2c(c1)cc1c(=O)n(CC(=O)NCCCOC(C)C)nc(C)n12`, the “% Inhibition @ 10 uM” value came to 0.0198%.

For the compound `CC(=O)Nc1ccc(C(=O)Nc2ccccc2Br)cc1`, the “% Inhibition @ 10 uM” value is reported as 2.7%.

As to `COc1ccccc1/C=C(\NC(=O)c1ccccc1)C(=O)Nc1cccc(Br)c1`, the “% Inhibition @ 10 uM” value is reported as 1.41%.

For the compound `C=CCN(Cc1nc(-c2ccc(OC)cc2)no1)S(=O)(=O)c1ccc(C)cc1`, the “% Inhibition @ 10 uM” value is -0.946%.

With `COc1cc(C2C3=C(CCCC3=O)N(C)C3=C2C(=O)CCC3)ccc1OCc1ccc(F)cc1`, the “% Inhibition @ 10 uM” value is -1.6%.

Take `COc1ccc(-c2c(C(F)(F)F)oc3cc(OC)ccc3c2=O)cc1`: the “% Inhibition @ 10 uM” value stood at 3.9%.

Consider `CCN(CC)CCCNc1nc2ccccc2c2nc(-c3ccncc3)nn12`, for which the “% Inhibition @ 10 uM” value is 2.6%.

Regarding `CCCCOc1ccc(C2C(=O)N(C3CCCCC3)CC(=O)N2CC2COc3ccccc3O2)cc1` (stereo not drawn), the “% Inhibition @ 10 uM” value stood at 4.36%.

Turning to `CCN1CCN(c2ncc3c(n2)CC(c2cc(OC)c(OC)c(OC)c2)CC3=O)CC1` (stereo not drawn), the “% Inhibition @ 10 uM” value is -5.2%.

As for `Cc1ccc2oc(-c3cccc(NC(=O)c4cccc5ccccc45)c3)nc2c1`, the “% Inhibition @ 10 uM” value amounted to 1.41%.

`O=C(CCS(=O)(=O)c1nc(-c2ccc3c(c2)OCO3)cc(C(F)(F)F)n1)Nc1cccnc1`: the “% Inhibition @ 10 uM” value is listed as 1.91%.

Take `Cc1ccc2nc(Cl)c3cc(C(=O)N4CCC(C(N)=O)CC4)sc3c2c1`: the “% Inhibition @ 10 uM” value is -0.0115%.

Take `O=C(O)Cn1cc(/C=C2/NC(=O)N(Cc3ccccc3F)C2=O)c2ccccc21`: the “% Inhibition @ 10 uM” value came to 4.85%.

On to `CC(=O)c1sc(NC(=O)C23CC4CC(CC(C4)C2)C3)nc1C`, for which the “% Inhibition @ 10 uM” value is reported as 12.1%.

As to `Cc1ccc2oc(C(=O)NCc3ccc(S(N)(=O)=O)cc3)c(C)c2c1`, the “% Inhibition @ 10 uM” value is reported as -3.71%.

Consider `CCC(C)N1CC(C(=O)NCCc2ccc(Cl)cc2)CC1=O` (stereo not drawn), for which the “% Inhibition @ 10 uM” value was -1.21%.

With `Cc1sc(NC(=O)C2CCCCC2)nc1-c1ccccc1`, the “% Inhibition @ 10 uM” value was -2.44%.

Regarding `CC(C)CCNC(=O)CN1N=C(c2ccccc2)CCC1=O`, the “% Inhibition @ 10 uM” value is reported as -2.99%.

As for `CCCOC(=O)C(C)Nc1nnc(O)nc1O` (stereo not drawn), the “% Inhibition @ 10 uM” value was determined as 1.27%.

`Cc1cc(O)nc(SCC(=O)N2CCN(C(c3ccccc3)c3ccccc3)CC2)n1`: the “% Inhibition @ 10 uM” value is -1.38%.

In the case of `COc1ccc(C2CC(=O)C3=C(CC(C)(C)CC3=O)N2c2ccncc2)cc1OC` (stereo not drawn), the “% Inhibition @ 10 uM” value was -1.05%.

With `N#Cc1ccc(OCc2cccc(C(=O)N3N=C(C(F)F)CC3(O)C(F)F)c2)cc1` (stereo not drawn), the “% Inhibition @ 10 uM” value was determined as 2.08%.

Turning to `CCc1cc2c(cc3c(=O)n(CC(=O)NCc4cccc(Cl)c4)ncn32)s1`, the “% Inhibition @ 10 uM” value was found to be 6.16%.

With `O=C(C(c1ccccc1)N1Cc2ccccc2C1=O)N1CCc2ccccc2C1` (stereo not drawn), the “% Inhibition @ 10 uM” value is reported as 8.32%.

As for `Cc1cccc(OCc2nc3ccccc3n2C)c1`, the “% Inhibition @ 10 uM” value was -1.31%.

With `CC(C)c1ccc(OCC(O)CN2C(C)CCCC2C)cc1` (stereo not drawn), the “% Inhibition @ 10 uM” value is reported as -0.67%.

As for `O=C(NC1CCN(Cc2ccccc2)CC1)C1c2ccccc2C(=O)N2CCc3ccccc3C12` (stereo not drawn), the “% Inhibition @ 10 uM” value is listed as -2.4%.

`O=c1c2cnn(-c3ccc(Cl)cc3)c2ncn1Cc1cccnc1`: the “% Inhibition @ 10 uM” value was -0.0309%.

Consider `COc1ccc(N(CC(=O)Nc2ccc(Cl)cc2C)S(C)(=O)=O)cc1OC`, for which the “% Inhibition @ 10 uM” value is -5.7%.

In the case of `CCOC(=O)c1nnn(-c2nonc2N)c1CSC#N`, the “% Inhibition @ 10 uM” value was -0.0735%.

For `C=Cc1ccc(Cn2c(C(=O)O)c(CNCc3ccc(CC)cc3)c3ccc(C)cc32)cc1`, the “% Inhibition @ 10 uM” value came to 4.96%.

`CCOc1ccc(CC(=O)NCc2cccs2)cc1OCC`: the “% Inhibition @ 10 uM” value is -4.72%.

On to `NC(=O)CCS(=O)(=O)CCN1CCCC1`, for which the “% Inhibition @ 10 uM” value is -3.92%.

Regarding `O=C(C1=C(O)C(=O)N(CCCN2CCOCC2)C1c1ccccc1)c1cc2ccccc2o1` (stereo not drawn), the “% Inhibition @ 10 uM” value is listed as -3.87%.

With `Cc1ccc(CNC(=O)c2ccc(N3Cc4ccccc4Oc4ncccc43)s2)o1`, the “% Inhibition @ 10 uM” value was -3.39%.

As to `Cc1c(C(=O)N2CCC(Cc3ccccc3)CC2)sc2nc3n(c(=O)c12)CCCCC3`, the “% Inhibition @ 10 uM” value is recorded as -3.18%.

For `CCCOc1ccc(CNC(=O)Cn2ncn3nc(-c4cccs4)cc3c2=O)cc1`, the “% Inhibition @ 10 uM” value is given as -2.85%.

Take `CCOC(=O)c1cnc2cc(C(F)(F)F)ccc2c1N1CC(C)CC(C)C1` (stereo not drawn): the “% Inhibition @ 10 uM” value is -0.631%.

As for `Cc1cc(C)cc(OCCSc2nc(-c3ccco3)nc3cc(=O)[nH]n23)c1`, the “% Inhibition @ 10 uM” value was found to be 3.33%.

Turning to `O=C(Nc1cc(Cl)ccc1C(=O)O)c1ccc(N2C(=O)c3ccccc3C2=O)cc1`, the “% Inhibition @ 10 uM” value is 3.79%.

With `COc1ccc(-c2c(C)sc(NC(=O)C3CC=CCC3C(=O)O)c2C#N)cc1` (stereo not drawn), the “% Inhibition @ 10 uM” value is listed as 1.43%.

Consider `COc1ccc(-c2cn3nc(N4CCCC(C(=O)NC(C)C)C4)sc3n2)cc1` (stereo not drawn), for which the “% Inhibition @ 10 uM” value is -3.32%.

On to `CCOc1ccc(C(c2c(O)oc3ccccc3c2=O)c2c(O)oc3ccccc3c2=O)cc1`, for which the “% Inhibition @ 10 uM” value is on record as 3.47%.
